Screen size: about 310,000 compounds; about 2,200 (0.71%) showed an effect of 50% or more. Effects have a minus sign here. The list shows a part of the results.
Each molecule was assayed against human ether-à-go-go-related gene (hERG) potassium channel (human, UniProt Q12809) (assay: primary screen, population patch clamp on CHO cells stably expressing hERG).
Chain of human ether-à-go-go-related gene (hERG) potassium channel (Q12809 whole entry, looked up): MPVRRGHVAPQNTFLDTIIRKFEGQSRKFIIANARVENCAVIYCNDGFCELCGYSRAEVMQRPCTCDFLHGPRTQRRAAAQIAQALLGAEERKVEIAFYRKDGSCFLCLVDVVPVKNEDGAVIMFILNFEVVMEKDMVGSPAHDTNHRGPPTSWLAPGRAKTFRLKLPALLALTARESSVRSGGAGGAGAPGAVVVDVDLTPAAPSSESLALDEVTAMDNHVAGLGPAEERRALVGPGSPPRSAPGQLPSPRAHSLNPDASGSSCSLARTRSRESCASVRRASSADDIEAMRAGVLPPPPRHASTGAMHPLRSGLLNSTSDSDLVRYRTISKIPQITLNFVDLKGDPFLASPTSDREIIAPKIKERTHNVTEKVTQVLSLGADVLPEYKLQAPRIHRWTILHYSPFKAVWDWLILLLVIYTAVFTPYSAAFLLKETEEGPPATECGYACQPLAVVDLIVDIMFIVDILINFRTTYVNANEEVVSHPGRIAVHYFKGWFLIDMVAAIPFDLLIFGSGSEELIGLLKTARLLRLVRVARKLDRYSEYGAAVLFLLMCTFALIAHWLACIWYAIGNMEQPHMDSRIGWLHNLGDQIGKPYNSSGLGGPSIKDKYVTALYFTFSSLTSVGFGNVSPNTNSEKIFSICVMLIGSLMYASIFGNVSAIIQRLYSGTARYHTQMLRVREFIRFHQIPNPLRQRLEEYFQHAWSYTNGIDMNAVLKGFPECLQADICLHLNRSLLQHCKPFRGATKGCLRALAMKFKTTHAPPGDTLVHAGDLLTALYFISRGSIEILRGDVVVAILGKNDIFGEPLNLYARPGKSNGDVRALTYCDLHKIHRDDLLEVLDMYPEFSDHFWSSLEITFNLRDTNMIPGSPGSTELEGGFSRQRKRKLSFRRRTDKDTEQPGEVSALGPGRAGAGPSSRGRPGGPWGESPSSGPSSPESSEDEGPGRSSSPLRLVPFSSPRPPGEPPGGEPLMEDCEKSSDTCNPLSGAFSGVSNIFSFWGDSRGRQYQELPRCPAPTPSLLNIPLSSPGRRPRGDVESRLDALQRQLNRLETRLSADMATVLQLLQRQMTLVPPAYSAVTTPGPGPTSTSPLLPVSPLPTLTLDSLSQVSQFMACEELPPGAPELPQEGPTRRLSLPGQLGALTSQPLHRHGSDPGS

SMILES | hERG current change (%, negative = inhibition) at 1uM
CC(C)c1ccc(C(C)NC(=O)C2CCCC2)cc1 (stereo not shown) | 4.3%
CC(C)Nc1nc(N)c(C(=O)C23CC4CC(CC(C4)C2)C3)s1 | 10.5%
Cc1ccc(OCC(=O)NNC(=O)CCc2ccccc2)c(Br)c1 | 14.5%
CCN(CC)C(=N)/C(C#N)=N/Nc1ccc(C)cc1 | -11.2%
COc1nc(C#N)nc(N(C)C)n1 | -12.4%
Cc1cc2ccccc2c(=O)n1CC(=O)NCC(=O)N(C)C1CCCCC1 | 7.37%
COc1ccccc1NC(=S)NCCc1ccc(F)cc1 | 11.7%
Nc1nc2nc(-c3ccc(Cl)cc3)cc(C(F)(F)F)n2n1 | 11.9%
CCN1c2ccccc2NC2C1C(C(C)=O)C(=O)N2c1ccc(Cl)cc1 (stereo not shown) | 7.18%
Cn1c(C(=O)N2CCCC(C(=O)NCc3cccs3)C2)cc2sccc21 (stereo not shown) | -1.35%
CC(=O)n1cc([C@@H]2C=C(C(=O)N3CCOCC3)O[C@H](OCCCCO)C2)c2ccccc21 | -1.57%
N#CCC(=O)Nc1ccc(C(=O)NCC(c2ccco2)N2CCCCC2)cc1 (stereo not shown) | 5.6%
CCN(CC(=O)NC1CCS(=O)(=O)C1)C(=O)c1ccc(OC)c([N+](=O)[O-])c1 (stereo not shown) | 9.3%
CCN1CC(CNCc2cn(-c3ccc(OC)cc3)nc2-c2ccccc2Cl)CC1=O (stereo not shown) | 7.7%
Cc1cc(NC(=O)CSc2ccc3nnc(-c4ccc(F)cc4)n3n2)no1 | 3.44%
Cc1sc2ncnc(OCC(=O)NC(C)C)c2c1C | 5.16%
CC(Oc1ccccc1)C(=O)Nc1ccccc1O (stereo not shown) | 16.9%
CCCn1c(SCC(=O)NC(C)C)nc2sc3c(c2c1=O)CCC3 | 14.8%
Cn1c(SCC(=O)N2CCN(c3ccccc3)CC2)nnc1-c1ccccc1 | 2.85%
CC(C)c1ccc(OC(=O)c2cccc(S(=O)(=O)N3CCN(C)CC3)c2)cc1 | 15.6%
O=C(CN1CCC(n2cnc3cc(F)ccc32)CC1)Nc1ccccc1Br | -23.5%
Cc1nc2cc(Cl)c(Cl)cc2n1CCCO | 4.38%
CSc1cccc(N2CC(C(=O)Nc3ccccc3N3CCCC3)CC2=O)c1 (stereo not shown) | 5.97%

SMILES | hERG current change (%, negative = inhibition) at 1uM
Cc1ccc(C)c(S(=O)(=O)N=Nc2c(O)[nH]c3ccccc23)c1 | 29%
COC(=O)c1ccc(N2CCOCC2)c(NC(=O)Nc2cccc(OC)c2)c1 | 9.75%
COc1ccc(CN2CN(c3ccc(Cl)cc3)C(=O)N(n3cnnc3)C2)cc1 | -5.38%
O=S(=O)(/C=C/c1ccccc1)Nc1ccc(N2CCOCC2)cc1 | 3.99%
O=C(/C=C(\O)c1ccccc1)C(=O)NNC(=O)c1ccccc1[N+](=O)[O-] | 17.1%
N#CC(C#N)=NNc1ccc([N+](=O)[O-])cc1 | 8.11%
Cc1ccc([N+](=O)[O-])cc1/C=N/Nc1nnnn1-c1ccccc1 | -5.7%
COc1ccc(CC(=O)Nc2nc3ccccc3[nH]2)cc1 | 10.1%
C/C(CC(=O)Nc1ccc([N+](=O)[O-])cc1)=N\NC(=O)c1ccccc1[N+](=O)[O-] | 10.2%
CC1CN(C(=O)CN2C(=O)NC3(CCCCCCC3)C2=O)CC(C)O1 (stereo not shown) | 12.4%
CC(=O)Nc1sc(C)c(C)c1C(=O)Nc1ccc(C)cc1 | 7.71%
Cc1ccc(N(Cc2ccco2)C(=O)c2ccc(N3CCCCC3)c([N+](=O)[O-])c2)cc1 | 13.7%
Cl.NCCc1cnc[nH]1 | 15%
O=C1OCCC1Sc1nnc(-c2ccccc2Cl)n1Cc1ccccc1 (stereo not shown) | 12.1%
CCOC(=O)c1sc(NC(=O)c2ccoc2C)c(C(N)=O)c1C | 5.06%
CCCCc1ccc(NC(=O)COCC)cc1 | 4.99%
CC(C)C(=O)Nc1nnc(S(=O)(=O)N(C)c2ccc(Cl)cc2)s1 | 11.1%
CC1Cc2cc(/C(O)=C3/C(=O)C(=O)N(CC4CCCO4)C3c3ccco3)ccc2O1 (stereo not shown) | 14.5%
Cc1cc(C)n(CC(O)COc2ccccc2[N+](=O)[O-])n1 (stereo not shown) | 13.1%
COC(=O)c1cc(Oc2ccc(S(=O)(=O)N3CCOCC3)cc2[N+](=O)[O-])cc(C(=O)OC)c1 | 12.9%
CC1(C)CC(=O)C(Sc2ccc(Br)cc2)=C(O)C1 | 11.9%
Cc1c(Cl)cccc1NC(=S)NC1CCN(C(C)C)CC1 | 12.4%
Cc1ccc(C)c(N2CCN(CCCNC(=O)Cn3cccc3C(=O)c3ccccc3C)CC2)c1 | -22.1%

SMILES | hERG current change (%, negative = inhibition) at 1uM
O=C(O)Cc1ccc(NC(=S)Nc2ccc(Br)cc2Cl)cc1 | 14.3%
Cc1onc(-c2ccccc2)c1C(=O)Oc1ccccc1 | 7.7%
CC(Sc1ccccc1)C(=O)Nc1ccc(S(=O)(=O)N2CCOCC2)cc1 (stereo not shown) | 7.46%
Cc1cc(C)cc(N2C(=O)CC(N3CCOCC3)C2=O)c1 (stereo not shown) | 10.4%
CCc1c(C)sc(NC(=O)Cc2ccccc2OC)c1C(=O)N1CCOCC1 | 7.77%
CCOC(=O)C1CCCN(C(=O)/C=C/c2ccccc2[N+](=O)[O-])C1 (stereo not shown) | 10.1%
Nc1c(C(=O)NCc2ccc3c(c2)OCO3)nnn1Cc1cccc(F)c1 | 10.6%
O=c1cc(-c2ccc(O)c(O)c2)oc2c(C3O[C@H](CO)[C@@H](O)[C@H](O)[C@H]3O)c(O)cc(O)c12 (stereo partly shown) | -8.83%
O=S(=O)(c1cc(F)ccc1F)N1CCN(c2ccccn2)CC1 | 10.9%
Cc1ccc(NC(=O)CCC2CC(C)(C)OC2=O)cc1 (stereo not shown) | 14.9%
CN(Cc1ccccc1)C(=S)NC(=O)c1ccc(-c2ccccc2)cc1 | 12.5%
Nc1nc(SCC(=O)N2CCN(c3ccccc3)CC2)n[nH]1 | 7.53%
O=C(C1CCN(S(=O)(=O)c2ccccc2)CC1)N1CCOCC1 | 9.57%
Fc1ccc(NC(=S)NCc2cccnc2)cc1 | 4.79%
COc1ccc(OC)c(NC(=O)c2ccc(NS(C)(=O)=O)cc2)c1 | 7.55%
COc1ccc(Cl)cc1NC(=S)N1CC(C)OC(C)C1 (stereo not shown) | 9.85%
COc1cccc(NC(=O)NNC(=O)C(C)Oc2ccc3ccccc3c2)c1 (stereo not shown) | 18.5%
Cn1c(=O)c(C(=O)COC(=O)c2cc(-c3ccco3)nc3ccccc23)c(N)n(CC2CC2)c1=O | 9.35%
Cc1ccc(C(C)NC(=O)C2CCCO2)cc1C (stereo not shown) | 20.4%
CCC(C)CCN1C(N(C)C)=NC[C@@H]1C (stereo partly shown) | 14.3%
CC(=O)c1c(-c2ccc(Cl)cc2Cl)noc1C | 12.3%
Cc1ccc(C)c(-c2cc(C(=O)Nc3cccc(C(=O)O)c3)c3ccccc3n2)c1 | 19.6%
Cc1ccc(C2C3CN(C(C)C)CC=C3C(C#N)=C(N)C2(C#N)C#N)cc1 (stereo not shown) | 1.59%

SMILES | hERG current change (%, negative = inhibition) at 1uM
COc1ccc(C2/C(=C(/O)c3ccc(Cl)cc3)C(=O)C(=O)N2CCN2CCOCC2)c(OC)c1 (stereo not shown) | 10.2%
O=C(NCC1CCCO1)c1cc2ccccc2o1 (stereo not shown) | 12.7%
Cc1nn(C)c(C)c1NC(=O)COc1ccc(Cl)cc1Br | 2.33%
CCC(C(=O)N1CCN(c2ncccn2)CC1)c1ccccc1 (stereo not shown) | 7.59%
O=C(O)c1cnn2cc(-c3[nH]ncc3[N+](=O)[O-])cnc12 | 12.1%
Cc1[nH]c2ccccc2c1-c1ccc(Cl)nn1 | 13.8%
CCCn1c(=N)c(S(=O)(=O)c2ccccc2)cc2c(=O)n3ccccc3nc21 | 4.02%
O=C1NC(=O)/C(=C\c2ccsc2)N1 | 12.8%
CCCCc1c(C)nn(-c2nnc3c4ccccc4n(C)c3n2)c1C | 10.4%
CC(C)c1ccc(NC2(C#N)C(=O)Nc3ccccc32)cc1 (stereo not shown) | 0.263%
COc1cc(NC(=S)NCc2cccs2)cc(OC)c1 | 9.81%
CN(C)S(=O)(=O)c1ccc(C(=O)Oc2cc(=O)[nH]c3ccccc23)cc1 | 14.1%
CC(C)C1(CCNC(=O)c2cccs2)CCOC(C)(C)C1 (stereo not shown) | 13.3%
CCCCn1c(N)c(N(CC)C(=O)CCc2ccccc2)c(=O)[nH]c1=O | 15.6%
O=C(/C=C/c1ccc2c(c1)OCO2)c1c(O)n(CCc2ccccc2)c(=O)[nH]c1=O | 12.8%
CCOC(=O)c1c(NC(=O)C(C)Sc2c[nH]c3ccccc23)sc2c1CCC2 (stereo not shown) | 20.3%
Cc1cccc(OCC(=O)Nc2ccc(N3CCN(S(C)(=O)=O)CC3)cc2)c1 | 7.33%
O=C(CSc1nnc2ccccn12)Nc1cccc(-c2nc3ccccc3s2)c1 | 10.8%
O=C(COc1ccc(C(=O)c2ccccc2)cc1)NC1CCCCC1 | 7.95%
CC(=O)Nc1ccc(S(=O)(=O)N(C)CC(=O)N(C)Cc2sccc2C)cc1 | 3.4%
Cc1cc(S(=O)(=O)n2ccnc2)c(Cl)cc1Cl | 17.9%
Cc1sc2ccccc2c1CC1=NCCN1.O=C(O)C(=O)O | -6.72%

— PMC4336329 (PLoS ONE, 2015)
